Data reported in patent US9872922B2, “Anti-EFNA4 antibody-drug conjugates” (PFIZER, INC., priority 2013, dated 2018).

Experiments:
[1] = target: T1, Ephrin-A4 (EFNA4) (Homo sapiens, UniProt P52798); assay: Direct ELISA binding specificity, Ephrin-A4; settings: biotin-labeled antibody
T1 construct: purchased R&D
T1 sequence (P52798 26-170): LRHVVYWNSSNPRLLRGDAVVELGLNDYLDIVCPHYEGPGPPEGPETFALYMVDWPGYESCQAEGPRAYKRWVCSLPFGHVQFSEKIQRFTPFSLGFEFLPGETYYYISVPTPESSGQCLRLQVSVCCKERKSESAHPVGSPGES
Experimental: (§1) Further properties were determined using ELISA to analyze the binding specificity of anti-EFNA4 antibodies huE22 and huE47 to Ephrin-A4 (EFNA4) along with homologous family members Ephrin-A1 (EFNA1) and Ephrin-A3 (EFNA3). Antibody binding was determined by direct ELISA with Ephrin-A1-His, Ephrin-A3-huFc, Ephrin-A4-huFc and Ephrin-A5-huFc (all from R&D) coated on BioOne Microlon (Greiner) plates in PBS overnight at 4° C. Biotin-labeled huE22 and huE47 were incubated on the plate for 2.5 hours at room temperature and Streptavidin HRP was used to develop signal from biotin labeled antibody in the absence of interfering human IgG signal.

[2] = test system: Z138; assay: Flow cytometry antibody binding (MCF), Z138; settings: 10 μg/ml antibody; Z138, MCL
Experimental: (§2) Binding of humanized anti-EFNA4 antibodies huE22 and huE47 was assessed on EFNA4 expressing cells by flow cytometry. Adherent cells were dissociated using TrpLE Express (GIBCO cat #12604-021), neutralized with cell culture media and counted. Cells were plated into a U-bottom 96-well plate (BD Falcon cat #353077) with 5×10e5 cells/100 μL media/well. The plate was centrifuged at 300×g, 5 minutes, 4° C. to pellet cells and the supernatant was discarded. All reagents were kept on ice for the following steps. Each pellet was resuspended in 100 μL primary humanized anti-EFNA4 antibody (huE22 or huE47) or negative control antibody at 10 μg/mL in 3% BSA in PBS. The plate was incubated on ice for 30 minutes. The plate was centrifuged and the cell pellets were washed in 200 μL 3% BSA in PBS. Each cell pellet was resuspended in 100 μL of R-phycoerythrin (PE)-conjugated goat anti-human IgG Fc fragment (Jackson ImmunoResearch cat #109-115-098) that had been diluted 1:50 in 3% BSA in PBS. The plate was incubated on ice for 30 minutes. […] The samples were analyzed by flow cytometry using 5 μL 7AAD (B-D Pharmingen cat #51-68981E) per sample as a viability stain.
(§3) Endogenous EFNA4 expressing cancer cell lines were analyzed: Breast cell lines BT-483, HCC202 and MX-1, Chronic Lymphocytic Leukemia (CLL) cell line MEC1 and mantle cell lymphoma (MCL) cell line Z138.

[3] = test system: MX-1; assay: Flow cytometry antibody binding (MCF), MX-1; settings: 10 μg/ml antibody; MX-1, Breast
Experimental: as §2, §3

[4] = target: T2, Ephrin-A3 (EFNA3) (Homo sapiens, UniProt P52797); assay: Direct ELISA binding specificity, Ephrin-A3; settings: biotin-labeled antibody
T2 construct: purchased R&D
T2 sequence (P52797 23-214): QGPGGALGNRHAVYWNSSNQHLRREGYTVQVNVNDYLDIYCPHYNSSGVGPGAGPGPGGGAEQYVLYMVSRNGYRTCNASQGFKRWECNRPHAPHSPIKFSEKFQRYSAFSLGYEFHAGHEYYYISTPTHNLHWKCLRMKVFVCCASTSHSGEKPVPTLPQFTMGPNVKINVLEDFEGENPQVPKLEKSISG
Experimental: as §1

[5] = test system: BT-483; assay: Flow cytometry antibody binding (MCF), BT-483; settings: 10 μg/ml antibody; BT-483, Breast
Experimental: as §2, §3

[6] = test system: HCC202; assay: Flow cytometry antibody binding (MCF), HCC202; settings: 10 μg/ml antibody; HCC202, Breast
Experimental: as §2, §3

[7] = test system: MEC1; assay: Flow cytometry antibody binding (MCF), MEC1; settings: 10 μg/ml antibody; MEC1, B-CLL
Experimental: as §2, §3

[8] = test system: HEK293T-EFNA4 cells; assay: Flow cytometry antibody binding (MCF), HEK293T-EFNA4; design: species or system human; settings: 10 μg/ml antibody; HEK293T-EFNA4, high expression of EFNA4
Experimental: Binding of humanized anti-EFNA4 antibodies huE22 and huE47 was assessed on EFNA4 expressing cells by flow cytometry. Adherent cells were dissociated using TrpLE Express (GIBCO cat #12604-021), neutralized with cell culture media and counted. Cells were plated into a U-bottom 96-well plate (BD Falcon cat #353077) with 5×10e5 cells/100 μL media/well. The plate was centrifuged at 300×g, 5 minutes, 4° C. to pellet cells and the supernatant was discarded. All reagents were kept on ice for the following steps. Each pellet was resuspended in 100 μL primary humanized anti-EFNA4 antibody (huE22 or huE47) or negative control antibody at 10 μg/mL in 3% BSA in PBS. The plate was incubated on ice for 30 minutes. The plate was centrifuged and the cell pellets were washed in 200 μL 3% BSA in PBS. Each cell pellet was resuspended in 100 μL of R-phycoerythrin (PE)-conjugated goat anti-human IgG Fc fragment (Jackson ImmunoResearch cat #109-115-098) that had been diluted 1:50 in 3% BSA in PBS. […] The samples were analyzed by flow cytometry using 5 μL 7AAD (B-D Pharmingen cat #51-68981E) per sample as a viability stain.
Antibody binding was measured in the manner described above for HEK293T parental cells, which express very low levels of EFNA4, and HEK293T-EFNA4 cells which are stable transfectants of HEK293T with a vector that enables high expression of human EFNA4.

[9] = target: T3, Ephrin-A1 (EFNA1) (Homo sapiens, UniProt P20827); assay: Direct ELISA binding specificity, Ephrin-A1; settings: biotin-labeled antibody
T3 construct: His; purchased R&D
T3 sequence (P20827 19-182): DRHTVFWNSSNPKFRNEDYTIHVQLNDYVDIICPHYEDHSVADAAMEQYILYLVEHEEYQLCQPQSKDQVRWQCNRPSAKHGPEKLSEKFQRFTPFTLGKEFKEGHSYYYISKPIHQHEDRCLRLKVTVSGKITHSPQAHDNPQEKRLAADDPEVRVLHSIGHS
Experimental: as §1

B1: huE47: humanized antibody E47, heavy chain SEQ ID NO: 51, light chain SEQ ID NO: 63 (antibody)
heavy: QVQLVQSGAEVKKPGASVKVSCKASGYTFTYFYMNWVRQAPGQGLEWVGQINPNNGGTAYAQKFQGRVTMTRDTSTSTVYMELSSLRSEDTAVYYCARWVGTHYFDYWGQGTTLTVSS[human IgG1 constant region omitted here]
light: EIVLTQSPATLSLSPGERATLSCRASQSVSSSSYTYIHWYQQKPGQAPRLLINFASNLESGIPARFSGSGSGTDFTLTISSLEPEDFAVYYCQHSWEIPPTFGGGTKLEIKRTVAAPSVFIFPPSDEQLKSGTASVVCLLNNFYPREAKVQWKVDNALQSGNSQESVTEQDSKDSTYSLSSTLTLSKADYEKHKVYACEVTHQGLSSPVTKSFNRGEC
Q: For B1, which “binding to Ephrin-A4 (EFNA4)” value [1] is on record?
A: binds to EFNA4

Q: And the “Mean Channel Fluorescent (MCF)” value [2]?
A: 44

Q: What about the “Mean Channel Fluorescent (MCF)” value [3] of the same molecule?
A: 21.1

Q: What about the “binding to Ephrin-A3 (EFNA3)” value [4] of the same molecule?
A: but not EFNA1 or EFNA3

Q: And the “Mean Channel Fluorescent (MCF)” value [5]?
A: 24

Q: And the “Mean Channel Fluorescent (MCF)” value [6]?
A: 21.9

Q: And the “Mean Channel Fluorescent (MCF)” value [7]?
A: 33

Q: And the “Mean Channel Fluorescence (MCF)” value [8]?
A: 576

Q: And the “binding to Ephrin-A1 (EFNA1)” value [9]?
A: but not EFNA1 or EFNA3
